Hit rate of the full screen: of about 310,000 compounds, about 14,000 (4.5%) showed an effect of 50% or more. Effects have a minus sign here. The list shows a part of the results.
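Also: peak tail current of the secondary pulse compared with the same well before compound.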

For this test, the target named is human ether-à-go-go-related gene (hERG) potassium channel (human, UniProt Q12809). Briefly: primary screen, population patch clamp on CHO cells stably expressing hERG.
Chain of human ether-à-go-go-related gene (hERG) potassium channel (Q12809 whole entry, looked up): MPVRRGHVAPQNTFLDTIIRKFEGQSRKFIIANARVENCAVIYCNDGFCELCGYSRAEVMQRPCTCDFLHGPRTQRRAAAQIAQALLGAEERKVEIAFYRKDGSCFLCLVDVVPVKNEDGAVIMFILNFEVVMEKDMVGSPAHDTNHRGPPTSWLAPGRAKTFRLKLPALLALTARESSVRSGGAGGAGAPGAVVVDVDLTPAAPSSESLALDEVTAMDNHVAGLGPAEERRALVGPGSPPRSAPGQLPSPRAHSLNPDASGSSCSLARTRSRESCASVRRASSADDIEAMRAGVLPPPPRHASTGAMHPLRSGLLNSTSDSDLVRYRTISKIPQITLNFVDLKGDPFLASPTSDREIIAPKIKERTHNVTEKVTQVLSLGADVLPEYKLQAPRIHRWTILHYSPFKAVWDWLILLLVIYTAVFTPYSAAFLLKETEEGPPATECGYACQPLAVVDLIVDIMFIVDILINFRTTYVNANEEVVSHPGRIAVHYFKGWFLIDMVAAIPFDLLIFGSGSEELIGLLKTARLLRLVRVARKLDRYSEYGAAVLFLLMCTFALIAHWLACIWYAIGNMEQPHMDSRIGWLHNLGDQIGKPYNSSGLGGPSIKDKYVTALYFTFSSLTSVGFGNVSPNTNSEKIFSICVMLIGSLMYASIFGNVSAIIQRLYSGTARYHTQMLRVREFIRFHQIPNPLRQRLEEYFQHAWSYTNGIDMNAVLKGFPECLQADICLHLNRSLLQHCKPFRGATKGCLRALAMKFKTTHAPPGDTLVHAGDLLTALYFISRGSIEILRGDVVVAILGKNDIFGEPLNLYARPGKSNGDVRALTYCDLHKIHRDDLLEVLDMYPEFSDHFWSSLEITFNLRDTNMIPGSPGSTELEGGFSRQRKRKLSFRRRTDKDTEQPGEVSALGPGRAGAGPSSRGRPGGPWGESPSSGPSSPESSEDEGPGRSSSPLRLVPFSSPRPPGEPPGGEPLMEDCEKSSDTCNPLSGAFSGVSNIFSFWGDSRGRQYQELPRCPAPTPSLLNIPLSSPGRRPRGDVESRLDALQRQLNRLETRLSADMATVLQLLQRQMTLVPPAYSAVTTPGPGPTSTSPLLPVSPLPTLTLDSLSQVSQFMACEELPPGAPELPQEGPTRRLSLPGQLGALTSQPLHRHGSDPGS
On to `O=C(NCCOc1ccccc1)c1cc(S(=O)(=O)N2CCOCC2)ccc1F`, for which the “hERG current change (%, negative = inhibition) at 10uM” value stood at 0.542%.
To `N#Cc1ccsc1NC(=O)c1cccc([N+](=O)[O-])c1` belongs 17.6%.
To `N/C(=N\OC(=O)CC1CCCCC1)c1cccc([N+](=O)[O-])c1` belongs -6.21%; to `O=C(Nc1nc(-c2cc(Cl)sc2Cl)cs1)c1ccc(Br)s1`, -6.05%.
To `COc1cc2c(cc1OC)CN(C(=S)Nc1ccc(C)cc1C)CC2` belongs -5.67%.
Turning to `CC1CCC(NC(=O)c2cc3c(s2)CCCC3)CC1` (stereo not drawn), the “hERG current change (%, negative = inhibition) at 10uM” value is given as 1.57%.
On to `O=C(C1CCN(c2ncnc3c2sc2cccc(F)c23)CC1)N1CCCC1`, for which the “hERG current change (%, negative = inhibition) at 10uM” value is recorded as -19.7%.
As for `CC(C)NC(=O)/C(C#N)=C/c1cccc(NC(=O)c2ccccc2Cl)c1`, the “hERG current change (%, negative = inhibition) at 10uM” value is recorded as 0.548%.
To `O=C(NCCOc1cccc(Oc2ccccc2)c1)c1cc(-n2cnnc2)ccc1Cl` belongs -26.9%; to `O=C1NC(=O)N(c2ccc(F)cc2)C(=O)/C1=C/c1ccsc1`, 5.25%; to `O=[N+]([O-])c1ccc(OCC(O)CN(CCO)CCO)cc1` (stereo not drawn), -54.8%.
Then `Cc1ccc(Cn2nnc3c(=O)[nH]c(C4CCN(S(=O)(=O)c5ccccc5F)CC4)nc32)cc1`, with -19%; and `COC(=O)Cc1c(C)nc2nc(NCc3ccc(Cl)cc3)[nH]n2c1=O`, with 6.18%; and `CCn1c(SCC(=O)Nc2oc(-c3ccccc3)c(-c3ccccc3)c2C#N)nnc1-c1cc(OC)cc(OC)c1`, with -5.33%.
Then `COc1cc(CCC(=O)OCC(=O)NC2CCCC(C)C2C)cc(OC)c1OC` (stereo not drawn), with 3.08%.
Regarding `O=C(c1cnn(C(=O)COc2ccccc2F)c1)c1cc(F)ccc1O`, the “hERG current change (%, negative = inhibition) at 10uM” value is 12.5%.
To `CCCCSCCCNC(=O)C1CCC(CNS(=O)(=O)c2ccccc2)CC1` (stereo not drawn) belongs 0.585%.
Then `Br.O=[N+]([O-])c1ccc(CSC2=NCCN2)cc1`, with -15.3%.
To `COc1ccccc1CNC(=O)COC(=O)c1ccc(C)c(S(=O)(=O)N2CCCCC2)c1` belongs -42.7%; to `Cc1ccc2nc(N3CCOCC3)c(C=O)cc2c1`, 3.06%.
For the compound `CCP(=O)(c1cccc([N+](=O)[O-])c1)c1cccc([N+](=O)[O-])c1`, the “hERG current change (%, negative = inhibition) at 10uM” value is listed as -17.2%.
To `COc1ccc(C(C)=O)c2c1OCCO2` belongs -3.35%.
Consider `COc1ccc(CCNC(=O)c2c(C)nc3ccccn23)cc1`, for which the “hERG current change (%, negative = inhibition) at 10uM” value is listed as -4.75%.
Then `CC(=O)Nc1ccc(N2CCN(C(C)=O)CC2)cc1`, with 17.4%; and `CC[C@H](C)[C@@H](NC(=O)O[C@@H]1C(=O)c2cc(OC)ccc2O[C@H]1c1ccc(OC)c(Br)c1)C(=O)OC`, with -1.62%.
To `Cc1cccc(-n2c(N)c(C(=O)NCCN3CCOCC3)c3nc4ccccc4nc32)c1` belongs -57.1%; to `CCOC(=O)C1=C(C)N=c2s/c(=C/c3cccc([N+](=O)[O-])c3O)c(=O)n2C1c1ccccc1` (stereo not drawn), -20.4%; to `O=C(Nn1c(C2CCCCC2)nc2ccccc2c1=O)c1ccc([N+](=O)[O-])cc1`, -4.12%.
`CC(C)C1Oc2ccccc2N(CC(=O)N(Cc2ccccn2)C2CC2)C1=O` (stereo not drawn): the “hERG current change (%, negative = inhibition) at 10uM” value is -13.6%.
To `CC(=O)N[C@@H](C)C(=O)N1CCC(n2nccc2NC(=O)CCCc2ccccc2)CC1` belongs -2.4%; to `CSCCC(NC(=O)C1CCC(C)CC1)C(=O)N1CCN(c2ccccn2)CC1` (stereo not drawn), -45.5%.
Then `COc1cc(N2CCCC2)c(OC)cc1/C=C1/NC(=S)NC1=O`, with 2.81%.
To `O=C(CSc1nc(-c2cccs2)cc(C(F)(F)F)n1)NCCCN1CCOCC1` belongs 1.17%; to `Cc1ccc(-c2nc3c(Cl)cc(Cl)cc3c(=O)n2O)cc1`, 16.1%.
For the compound `O=C(O)c1cc([N+](=O)[O-])ccc1NCc1cccnc1`, the “hERG current change (%, negative = inhibition) at 10uM” value came to 11.9%.
Then `CCOc1ccc(-c2noc(CCCC(=O)NC3CCCCC3)n2)cc1OC`, with -37.1%; and `O=C(Nc1ccc(O)cc1)c1ccc2c(c1)C(=O)N(Cc1cccnc1)C2=O`, with 7.52%.
To `Cc1nc(S/C(C(=O)O)=C2/C(=O)Nc3ccccc32)n[nH]1` belongs -4.82%.
Then `CC1Cc2ccccc2N1C(=O)COC(=O)c1ccc(Cl)nc1` (stereo not drawn), with 3.39%; and `COc1ccc(-c2c(C)n([O-])c3c([n+]2=O)CCCCC3)cc1`, with 9.61%.
As to `Cc1c(Cl)cccc1NC(=O)CNc1cccc(C(F)(F)F)c1`, the “hERG current change (%, negative = inhibition) at 10uM” value was -2.18%.
To `COc1ccc(CCNC(=O)c2nn(C)c3c2CS(=O)(=O)c2ccccc2-3)c(OC)c1` belongs -19.7%; to `COc1ccc(CC2(CCc3ccccn3)C(=O)NC(=O)N(c3ccccc3C)C2=O)cc1OC` (stereo not drawn), 6.39%.
Then `O=C(c1cc2ccccc2oc1=O)N1CCN(c2ccccn2)CC1`, with -7.95%; and `COCCCNC(=S)Nc1cccc(SC)c1`, with 12.8%; and `CCC(CC)NC(=O)c1nn(Cc2ccccc2)c(=O)c2ccccc12`, with 10.9%.
Consider `COC(=O)Cc1ccc(OC(=O)c2cccc(S(=O)(=O)N3CCN(C)CC3)c2)cc1`, for which the “hERG current change (%, negative = inhibition) at 10uM” value stood at 1.35%.
To `O=C(O)c1cccc(S(=O)(=O)Nc2cccc(S(=O)(=O)N3CCCC3)c2)c1` belongs 0.053%; to `Cc1nn(-c2ccc(Cl)cc2Cl)c(=O)c2ccccc12`, -11.3%; to `CCOC(=O)N1CCN(C(=O)CCN2C(=O)/C(=C\c3cccc(OC)c3)SC2=S)CC1`, 5.87%.
Then `Cc1ccc(C(=O)CSc2nnc(-c3ccco3)o2)o1`, with 0.0679%; and `COc1ccc2c(c1)c(C(C)=O)c(C)n2CCc1ccc(OC)c(OC)c1`, with -6.52%.
Then `C/C(=C(\C#N)C(=O)NCCN1CCOCC1)N(C)C`, with -31.4%.
For `COc1ccc(CCNC(=O)c2cc(=O)c3cc(C)ccc3o2)cc1OC`, the “hERG current change (%, negative = inhibition) at 10uM” value is -12.7%.
As to `Cc1cccc(Oc2sc(C(=O)c3ccccc3)c(N)c2C#N)c1C`, the “hERG current change (%, negative = inhibition) at 10uM” value is listed as 8.13%.
`COc1ccc(NC(=S)NC(NC(=O)c2cccc3ccccc23)C(Cl)(Cl)Cl)c([N+](=O)[O-])c1` (stereo not drawn): the “hERG current change (%, negative = inhibition) at 10uM” value is recorded as -10.3%.
To `CN(C(=O)c1ccc2c(c1)OCO2)C1(C)CCS(=O)(=O)C1` (stereo not drawn) belongs 0.831%; to `CCCCn1c(N)c(N(CC(C)C)C(=O)c2ccc3c(c2)NC(=O)C(C)S3)c(=O)[nH]c1=O` (stereo not drawn), 15.6%.
To `CCOc1ccc2ncc(S(=O)(=O)c3ccccc3)c(N3CCN(c4ccccc4)CC3)c2c1` belongs -2.21%; to `O=C(CCSCCc1ccccn1)Nc1nccs1`, 30.1%; to `Nc1ccc(C(=O)OCC(=O)N2c3ccccc3Sc3ccccc32)cc1[N+](=O)[O-]`, 8.44%.
To `O=C(Nc1ccc2cn[nH]c2c1)c1ccc(Cl)c(S(=O)(=O)N2CCOCC2)c1` belongs 13.4%; to `Cc1ccc(-n2nc(C)c(=O)c(-c3ccccc3)c2NC(=O)c2cccs2)cc1`, 9.65%; to `CCOC(=O)C1=C(C)NC(=O)NC1c1ccc(NC(C)=O)cc1` (stereo not drawn), 11.6%.
For the compound `O=C(Nc1ccccc1F)C1CCN(S(=O)(=O)c2cccnc2)CC1`, the “hERG current change (%, negative = inhibition) at 10uM” value came out at 9.24%.
With `C=CCn1cc(CN2CCC(C(=O)Nc3cccc(-c4cccc(Cl)c4)c3)CC2)c(C)n1`, the “hERG current change (%, negative = inhibition) at 10uM” value was -71.5%.
Then `O=C(COn1nnc2ccc(S(=O)(=O)N3CCOCC3)cc21)NCCc1ccccc1`, with -8.87%; and `CCOc1ccccc1NC(=O)C1CCCN(S(=O)(=O)c2ccc(-n3cnnn3)cc2)C1` (stereo not drawn), with -14.9%.
With `COc1ccc(N2C(=O)c3ccc(C(=O)Nc4ccccc4OC)cc3C2=O)cc1`, the “hERG current change (%, negative = inhibition) at 10uM” value stood at 10.1%.
Then `Oc1ccc(CN2CCN(Cc3ccccc3)CC2)c2cccnc12`, with -13.9%.
On to `CC(C)c1ccc(OCC(=O)NC(Cc2c[nH]c3ccccc23)C(=O)O)cc1` (stereo not drawn), for which the “hERG current change (%, negative = inhibition) at 10uM” value is on record as 12.8%.
Then `COc1ccc(CCNS(=O)(=O)c2cccc(F)c2)cc1OC`, with -1.75%; and `CC(=O)c1ccc(NC(=O)C2CCCN(S(=O)(=O)c3ccc(-n4cnnn4)cc3)C2)cc1` (stereo not drawn), with -7.32%.
To `O=C1NCCN1C(=O)C12CC3CC(CC(C3)C1)C2` belongs -3.17%; to `COC(=O)CN(c1cc(C(F)(F)F)ccc1Cl)S(C)(=O)=O`, -0.798%.
As for `CC1=NN(c2ccccc2)C(=O)C1N=Nc1ccc(S(N)(=O)=O)cc1` (stereo not drawn), the “hERG current change (%, negative = inhibition) at 10uM” value worked out at 10.5%.
Turning to `Cn1c(CN2CCN(c3ccccc3NS(C)(=O)=O)CC2)nc2ccccc21`, the “hERG current change (%, negative = inhibition) at 10uM” value is recorded as -61.5%.
Then `O=C(C1=COCCO1)N1CCN(S(=O)(=O)c2cccc(Cl)c2Cl)CC1`, with -21.4%; and `O=C(Nc1nnc(SCC(=O)N2CCCCC2)s1)c1ccc(F)cc1F`, with -1.68%; and `COc1ccc(NC(=O)CNc2cc(C)ccc2C)cc1S(=O)(=O)N1CCOCC1`, with -8.85%.
Then `O=c1nc(Nc2ccc([N+](=O)[O-])cc2)[nH]c(=O)[nH]1`, with 24.5%.
To `COCCN(CC(=O)Nc1cccc(C)c1C)C(=O)Cn1c(=O)cnc2ccccc21` belongs -0.721%; to `O=C(CSc1ncccc1-c1nc2ccccc2[nH]1)N1CCc2ccccc21`, 13.2%.
On to `COc1ccc(OC)c(S(=O)(=O)n2ccnc2C(C)C)c1`, for which the “hERG current change (%, negative = inhibition) at 10uM” value turned out to be 13.7%.

Values taken from publication PMC4336329 (PLoS ONE, 2015).
